For 153 variants, enrichment ratio results are on record in a collection of fitness landscapes (doi:10.1126/science.1257360).

The labels stand for the following.
B1: PhoQ; a variant is named by its letters at X, in order, P23837 (parent)
chain: MKKLLRLFFPLSLRVRFLLATAAVVLVLSLAYGMVALIGYSVSFDKTTFRLLRGESNLFYTLAKWENNKLHVELPENIDKQSPTMTLIYDENGQLLWAQRDVPWLMKMIQPDWLKSNGFHEIEADVNDTSLLLSGDHSIQQQLQEVREDDDDAEMTHSVAVNVYPATSRMPKLTIVVVDTIPVELKSSYMVWSWFIYVLSANLLLVIPLLWVAAWWSLRPIEALAKEVRELEEHNRELLNPATTRELTSLVRNLNRLLKSERERYDKYRTTLTDLTHSLKTPLXXLQXXLRSLRSEKMSVSDAEPVMLEQISRISQQIGYYLHRASMRGGTLLSRELHPVAPLLDNLTSALNKVYQRKGVNISLDISPEISFVGEQNDFVEVMGNVLDNACKYCLEFVEISARQTDEHLYIVVEDDGPGIPLSKREVIFDRGQRVDTLRPGQGVGLAVAREITEQYEGKIVAGESMLGGARMEVIFGRQHSAPKDE

The other results are listed elsewhere or left out.

This test covers variants of B1. Put plainly: enrichment ratio after two sorts for PhoP signalling (ratio (wild type AVST 3.29)); higher = more functional. Conditions: with PhoP (E. coli).
For the variant ERDH, the enrichment ratio is at most 0.25.

For the variant PCWG, the enrichment ratio was at most 0.25.

Consider TNIC, for which the enrichment ratio was at most 0.25.

Turning to YYYL, the enrichment ratio is at most 0.25.

With FAAC, the enrichment ratio is at most 0.25.

For the variant MSVT, the enrichment ratio is at most 0.25.

Consider VDTW, for which the enrichment ratio is at most 0.25.

Take MDEP: the enrichment ratio was at most 0.25.

Regarding CSFH, the enrichment ratio was at most 0.25.

On to RGNF, for which the enrichment ratio is at most 0.25.

With RCKF, the enrichment ratio was at most 0.25.

Regarding RTFV, the enrichment ratio is at most 0.25.

For the variant SGYW, the enrichment ratio was at most 0.25.

Take GTRH: the enrichment ratio is at most 0.25.

As to YPSR, the enrichment ratio is at most 0.25.

As for YDMK, the enrichment ratio was at most 0.25.

As to PAGG, the enrichment ratio is at most 0.25.

Regarding STDV, the enrichment ratio is at most 0.25.

For the variant WQQM, the enrichment ratio is at most 0.25.

As to NQLA, the enrichment ratio was at most 0.25.

Consider NWKL, for which the enrichment ratio is at most 0.25.

As to PCWC, the enrichment ratio is at most 0.25.

As to VPQA, the enrichment ratio is at most 0.25.

Consider EFGC, for which the enrichment ratio was at most 0.25.

Take LKRG: the enrichment ratio is at most 0.25.

Take GMNG: the enrichment ratio was at most 0.25.

For the variant MQEP, the enrichment ratio was at most 0.25.

As to ILIY, the enrichment ratio was at most 0.25.

As for ALMP, the enrichment ratio was at most 0.25.

Consider FHFN, for which the enrichment ratio is at most 0.25.

Take PWLH: the enrichment ratio is at most 0.25.

Take RKRS: the enrichment ratio is at most 0.25.

In the case of MDLK, the enrichment ratio is at most 0.25.

As to HADT, the enrichment ratio is at most 0.25.

On to VQNV, for which the enrichment ratio was at most 0.25.

WAFW: the enrichment ratio was at most 0.25.

Regarding EGLP, the enrichment ratio was at most 0.25.

Regarding DQPM, the enrichment ratio was at most 0.25.

As for WFFY, the enrichment ratio is at most 0.25.

Turning to MITM, the enrichment ratio was 4.1.

Consider APVI, for which the enrichment ratio was at most 0.25.

In the case of HDRH, the enrichment ratio is at most 0.25.

As to PDRC, the enrichment ratio is at most 0.25.

Regarding PEIH, the enrichment ratio is at most 0.25.

Consider FIRP, for which the enrichment ratio was at most 0.25.

Turning to PTCC, the enrichment ratio was at most 0.25.

On to EHHF, for which the enrichment ratio was at most 0.25.

Regarding PHTW, the enrichment ratio was at most 0.25.

For SDNL, the enrichment ratio was at most 0.25.

In the case of HFSQ, the enrichment ratio is at most 0.25.

As to ANVK, the enrichment ratio is at most 0.25.

For the variant VQFH, the enrichment ratio was at most 0.25.

Turning to WVDK, the enrichment ratio is at most 0.25.

Consider SQQQ, for which the enrichment ratio came out at 7.71.

As for GIKP, the enrichment ratio was at most 0.25.

As for RNAW, the enrichment ratio is at most 0.25.

VQEL: the enrichment ratio is at most 0.25.

For LTCF, the enrichment ratio was at most 0.25.

As to MHFH, the enrichment ratio is at most 0.25.

For MFMS, the enrichment ratio is at most 0.25.

For LEDS, the enrichment ratio is at most 0.25.

For the variant NKKG, the enrichment ratio was at most 0.25.

Take MCGW: the enrichment ratio is at most 0.25.

On to VIWD, for which the enrichment ratio is at most 0.25.

For GCHS, the enrichment ratio is at most 0.25.

Consider HSMF, for which the enrichment ratio is 2.32.

Take IGDI: the enrichment ratio is at most 0.25.

Take KQRE: the enrichment ratio was at most 0.25.

Take DGLA: the enrichment ratio was at most 0.25.

As for GRRG, the enrichment ratio was at most 0.25.

For the variant NVVC, the enrichment ratio is at most 0.25.

In the case of PVPN, the enrichment ratio is at most 0.25.

Regarding DQGC, the enrichment ratio is at most 0.25.

Consider FGQR, for which the enrichment ratio is at most 0.25.

YMYK: the enrichment ratio was at most 0.25.

Consider PSIK, for which the enrichment ratio was at most 0.25.

Take AYCY: the enrichment ratio was at most 0.25.

With FEFK, the enrichment ratio was at most 0.25.

Take EDQP: the enrichment ratio is at most 0.25.

As for IWDD, the enrichment ratio was at most 0.25.

As to RAAL, the enrichment ratio is at most 0.25.

With YKKI, the enrichment ratio is at most 0.25.

As for WILC, the enrichment ratio was at most 0.25.

Take SYYL: the enrichment ratio is at most 0.25.

Regarding NQKT, the enrichment ratio is at most 0.25.

Turning to ILMI, the enrichment ratio was at most 0.25.

As to IGME, the enrichment ratio was at most 0.25.

Consider CAPF, for which the enrichment ratio is at most 0.25.

Consider YFRY, for which the enrichment ratio is at most 0.25.

For TMCM, the enrichment ratio amounted to 10.

On to QMKK, for which the enrichment ratio was at most 0.25.

Take ASTQ: the enrichment ratio was found to be 3.55.

Turning to YEHS, the enrichment ratio is at most 0.25.

On to FCFM, for which the enrichment ratio is at most 0.25.

As for NQDW, the enrichment ratio was at most 0.25.

KDDC: the enrichment ratio is at most 0.25.

In the case of LWNI, the enrichment ratio was at most 0.25.

Consider KMGW, for which the enrichment ratio is at most 0.25.

As to SPNE, the enrichment ratio was at most 0.25.

Take PISS: the enrichment ratio was at most 0.25.

For the variant WRSQ, the enrichment ratio is at most 0.25.

As to KDST, the enrichment ratio was at most 0.25.

Consider HSCK, for which the enrichment ratio is at most 0.25.

As to YRWG, the enrichment ratio was at most 0.25.

As to DQNR, the enrichment ratio is at most 0.25.

RTTD: the enrichment ratio is at most 0.25.

With WTKS, the enrichment ratio was at most 0.25.

On to IVKD, for which the enrichment ratio is at most 0.25.

WMQP: the enrichment ratio is at most 0.25.

In the case of LMKV, the enrichment ratio was at most 0.25.

AGLV: the enrichment ratio was found to be 12.7.

As for TWFM, the enrichment ratio was at most 0.25.

Regarding DYWQ, the enrichment ratio is at most 0.25.

Turning to STRK, the enrichment ratio is at most 0.25.

As for GYNM, the enrichment ratio was at most 0.25.

In the case of AIRS, the enrichment ratio is at most 0.25.

In the case of DTVW, the enrichment ratio is at most 0.25.

On to MTAH, for which the enrichment ratio was determined as 3.38.

As to NTGE, the enrichment ratio is at most 0.25.

As for AHWI, the enrichment ratio was at most 0.25.

As for WTAP, the enrichment ratio is at most 0.25.

As to LDID, the enrichment ratio is at most 0.25.

Take ANII: the enrichment ratio turned out to be 8.54.

On to YRCL, for which the enrichment ratio was at most 0.25.

Consider GHDH, for which the enrichment ratio is at most 0.25.

Turning to SVNV, the enrichment ratio was at most 0.25.

In the case of MNMS, the enrichment ratio was at most 0.25.

On to PPLA, for which the enrichment ratio is at most 0.25.

On to GKGW, for which the enrichment ratio is at most 0.25.

For YQGP, the enrichment ratio is at most 0.25.

Turning to TLVT, the enrichment ratio was at most 0.25.

KNVV: the enrichment ratio was at most 0.25.

With QLDK, the enrichment ratio is at most 0.25.

In the case of KVHN, the enrichment ratio was at most 0.25.

For the variant YDME, the enrichment ratio was at most 0.25.

Regarding WTPD, the enrichment ratio was at most 0.25.

With AAHH, the enrichment ratio is at most 0.25.

For TYGA, the enrichment ratio was at most 0.25.

With HSGK, the enrichment ratio was at most 0.25.

Take MSDF: the enrichment ratio is at most 0.25.

For the variant GSAV, the enrichment ratio was determined as 3.98.

Take APHG: the enrichment ratio was at most 0.25.

For the variant CLAV, the enrichment ratio was at most 0.25.

For the variant TNPC, the enrichment ratio was at most 0.25.

Take DKQQ: the enrichment ratio is at most 0.25.

Consider YLSH, for which the enrichment ratio was at most 0.25.

As for CMSL, the enrichment ratio is at most 0.25.

As for NQAK, the enrichment ratio was at most 0.25.

For RVDW, the enrichment ratio is at most 0.25.

As for NSYF, the enrichment ratio is at most 0.25.

Consider MSIL, for which the enrichment ratio is 9.44.

With PQMF, the enrichment ratio was at most 0.25.

As to SHMP, the enrichment ratio was at most 0.25.
